Experimental data: PubChem BioAssay AID504832 (National Center for Advancing Translational Sciences (NCATS), 2011)
The campaign covered roughly 310,000 compounds. About 18,000 (5.8%) were called active. Inconclusive results, whose numbers are uncertain, are shown with a selection of clear calls. The call rests on the fitted dose curve; in most records, active means well fitted inhibition curve with a large enough effect; inconclusive means small, poorly fitted or top-dose-only effect, or another doubt; inactive means no such curve, though single readings can be large or run the other way. No potency is given beside an inconclusive call; the fits are too rough.
On the % scale 0 is the no-effect control and ±100 the full control effect; potency means the concentration at half of the fitted maximal effect; tags describe the fitted curve by direction and shape.

Experiment: Primary qHTS for delayed death inhibitors of the malarial parasite plastid, 48 hour incubation
Settings: P. falciparum luciferase growth in erythrocytes; series mostly up to 28.7 µM
Outline: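 First compound was added to culture medium, then infected red cells at 0.1% parasitemia and 2% hematocrit (final). After incubation at 37 C under 5% CO2, luciferase detection reagent was dispensed and light output recorded.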
With `CC(C)OC(=O)c1ccc(NC(=O)Cn2c(-c3nonc3N)nc3ccccc32)cc1` the Potency was active: 10.4 µM. With `Cc1ccc(NS(=O)(=O)c2cc(C(=O)NCCSc3ccc(C)cc3)ccc2C)cc1` the Potency was inconclusive [inhibitor, single point]. In the case of `COc1ccc(OC)c(NC(=S)NN2CCN(C)CC2)c1`, the Potency is reported as “inactive”. In the case of `CCSc1c(C(=O)NC)ccc2c1C(=O)c1ccccc1C2=O`, the Potency is reported as “inactive”. With `Cc1ccc(-n2ncc(C(=O)N3CCN(C(=O)c4ccco4)CC3)c2C2CCN(C(=O)OC(C)(C)C)CC2)cc1C` the Potency was active: 4.65 µM. With `O=C1CC(c2ccco2)CC(O)=C1C=Nc1cc(Cl)ccc1O` (stereo unspecified) the Potency was active: 9.28 µM. In the case of `O=C(Nc1ccc(F)cc1)C1=CC(=O)N2CCN=C2S1`, the Potency is reported as inconclusive [inhibitor, partial curve, poor fit]. For `CN(C(=O)COC(=O)CNC(=O)c1ccc(C(C)(C)C)cc1)c1c(N)n(Cc2ccccc2)c(=O)[nH]c1=O`, the Potency was “inactive”. For `Cc1nc2ccccc2c(=O)n1/N=C/c1ccc2ccccc2c1O`, the Potency was inconclusive [inhibitor, single point]. For `c1ccc(Cn2nnc3c(NCC4CCCO4)nc(C4CC4)nc32)cc1` (stereo unspecified), the Potency was inconclusive [inhibitor, partial curve, poor fit]. In the case of `Cc1ccc(-c2cc(C(F)(F)F)nc(SCC(=O)c3cccc([N+](=O)[O-])c3)n2)cc1`, the Potency is reported as inconclusive [inhibitor, full curve]. In the case of `COc1ccc(CCN2C(=O)N[C@@H](CCC(=O)O)C2=O)cc1`, the Potency is reported as “inactive”. In the case of `C/C(=N/NC(=O)c1cccnc1)C1=C(O)CC(C)(C)CC1=O`, the Potency is reported as “inactive”. For `Cc1onc(-c2ccccc2Cl)c1C(=O)Nc1ccc(-n2nncc2C(C)(C)C)cc1`, the Potency was inconclusive [inhibitor, single point]. For `COc1cccc(-c2nc(CS(=O)(=O)CC(=O)Nc3cc(F)ccc3F)c(C)o2)c1`, the Potency was “inactive”. For `C=CCS(=O)(=O)N1CCCC(N(C)CCc2ccc(OC)c(OC)c2)C1` (stereo unspecified), the Potency was inconclusive [inhibitor, partial curve, poor fit]. For `CCOC(=O)C1CCN(C(c2ccc(OC)c(OC)c2)c2sc3nc(C)nn3c2O)CC1` (stereo unspecified), the Potency was inconclusive [inhibitor, partial curve, poor fit]. With `Cn1c(SCC(=O)N/N=C/c2ccc([N+](=O)[O-])s2)nnc1-c1ccccc1` the Potency was active: 6.57 µM. With `COc1ccc(-c2cnnc(N/N=C/c3ccc(O)c(O)c3)n2)cc1` the Potency was active: 1.65 µM. In the case of `Cc1cc(C)cc(NC(=O)C(=O)NCCc2c[nH]c3ccccc23)c1`, the Potency is reported as “inactive”. For `CCC(NC(=O)c1[nH]c(C)c(C(C)=O)c1C)c1ccc(Br)cc1` (stereo unspecified), the Potency was active: 9.28 µM. In the case of `COCCN(C(=O)COC(=O)c1ccccc1Nc1ccccc1)c1c(N)n(Cc2ccccc2)c(=O)[nH]c1=O`, the Potency is reported as inconclusive [inhibitor, partial curve]. For `CCN1C(=O)[C@H]2[C@@H](c3ccc(-c4ccc(Cl)c(Cl)c4)cc3)N[C@@](Cc3ccccc3)(C(=O)OC)[C@H]2C1=O`, the Potency was inconclusive [inhibitor, partial curve, poor fit]. For `CC(C)(C)NC(=O)CSc1nc(O)cc(=O)n1-c1ccccc1F`, the Potency was active: 2.62 µM. For `CO/N=C/NC(=O)C1=NOC(CNc2ncc(C(F)(F)F)cc2Cl)C1` (stereo unspecified), the Potency was “inactive”. With `CCC(OCC(O)CN1CCN(CCN2C(=O)c3cccc4cccc(c34)C2=O)CC1)c1ccccc1` (stereo unspecified) the Potency was inconclusive [inhibitor, single point]. With `COCCOC(=O)c1c(C)nc(SCC(=O)Nc2ccc(C)cc2)c(C#N)c1-c1ccco1` the Potency was inconclusive [inhibitor, single point]. With `Nc1cc(-c2cccc(F)c2)nn1S(=O)(=O)c1cccc2nsnc12` the Potency was “inactive”. In the case of `COc1ccc(CCN(C)Cc2ccc(OCc3ccccc3)c(OC)c2)cc1OC`, the Potency is reported as inconclusive [inhibitor, full curve, poor fit]. For `CCOc1ccc(NC(=O)CC2C(=O)N(c3ccc(OCC)cc3)C(=S)N2C2CC2)cc1` (stereo unspecified), the Potency was inconclusive [inhibitor, single point]. In the case of `Cc1ccc(COC(=O)CCN=C2NS(=O)(=O)c3ccccc32)cc1`, the Potency is reported as inconclusive [inhibitor, single point]. With `COc1ccc(C2C(C(=O)N3CCN(c4ccccn4)CC3)CCC(=O)N2c2cc(OC)c(OC)c(OC)c2)cc1` (stereo unspecified) the Potency was inconclusive [inhibitor, single point]. For `COc1ccc(S(N)(=O)=O)cc1C(=O)OCC(=O)NC(C)(C#N)C1CC1` (stereo unspecified), the Potency was “inactive”. With `O=C(Cc1cccs1)Nc1ccc(F)c(S(=O)(=O)N2CCOCC2)c1` the Potency was inconclusive [inhibitor, partial curve]. For `COc1cc(C(c2sc3nc(C)nn3c2O)N2CC(C)CC(C)C2)cc(OC)c1OC` (stereo unspecified), the Potency was inconclusive [inhibitor, partial curve, poor fit]. In the case of `Cc1c(-c2cc[n+]([O-])cc2)oc2ccc(Br)cc2c1=O`, the Potency is reported as inconclusive [inhibitor, partial curve, poor fit]. For `CCC1C/C(=C\c2cc(OC)c(OC)cc2OC)C(=O)/C(=C/c2cc(OC)c(OC)cc2OC)C1` (stereo unspecified), the Potency was active: 5.22 µM. For `COc1ccc(CN(C(=O)CSc2nnc(-c3c[nH]c4ccccc34)o2)c2ccc(F)cc2)cc1OC`, the Potency was active: 4.15 µM. With `COc1ccc(OC)c(CCNC(=O)C(=O)Nc2ccc3nc4n(c(=O)c3c2)CCCCC4)c1` the Potency was active: 4.15 µM. For `COc1ccc(C)cc1NC(=O)NNC(=O)C(C)Oc1ccc(F)cc1Cl` (stereo unspecified), the Potency was inconclusive [inhibitor, single point]. In the case of `CCc1cccc(CC)c1N(COC)C(=O)Cn1nnc2ccccc21`, the Potency is reported as inconclusive [inhibitor, single point]. In the case of `COc1ccc(C(=O)NCC(=O)N2CCN(C(=O)c3ccco3)CC2)cc1`, the Potency is reported as “inactive”. For `Cc1ccc(-c2nc(Nc3cccc(O)c3)c3ccccc3n2)cc1`, the activity change, negative = inhibition was inactive: 7.69% [at 0.00184 µM]. With `CN(C)C=NC(=O)c1cc(C(=O)c2ccc(Cl)cc2)c[nH]1` the Potency was “inactive”. In the case of `COc1ccccc1N1CCN(Cc2cc(=O)c(OCC(=O)NC3CCCC3)co2)CC1`, the Potency is reported as inconclusive [inhibitor, full curve, poor fit]. For `O=C1NC(c2ccc(-c3ccccc3[N+](=O)[O-])o2)C(C(=O)c2ccc(Cl)cc2)C(O)(C(F)(F)F)N1` (stereo unspecified), the Potency was inconclusive [inhibitor, single point]. With `COc1ccc(/C=C2/SC(=O)N(CC(O)Cn3c4ccccc4c4ccccc43)C2=O)cc1` (stereo unspecified) the Potency was inconclusive [inhibitor, single point]. For `O=C(C1CC1)N(CCN(C(=O)C1CC1)c1ccccc1)c1ccccc1`, the Potency was active: 0.0026 µM. For `Cc1c(C)c2ccc(OC(C)C(=O)N[C@@H](Cc3c[nH]c4ccccc34)C(=O)O)c(C)c2oc1=O` (stereo partly specified), the Potency was inconclusive [inhibitor, single point]. In the case of `CC1(C)CC(=O)C(C(C2=C(O)CC(C)(C)CC2=O)c2ccc(O)c([N+](=O)[O-])c2)=C(O)C1`, the Potency is reported as “inactive”. For `C=CCNC(=O)/C(C#N)=C/c1c(N2CCN(c3cccc(Cl)c3)CC2)nc2c(C)cccn2c1=O`, the Potency was active: 8.28 µM. With `CCCCCCn1c(SCC(C)C)nc2c1c(=O)[nH]c(=O)n2C` the Potency was inconclusive [inhibitor, full curve, poor fit]. In the case of `C=CC[C@H]1CC(Cc2ccccc2)=C[C@H](CC=C)N1`, the Potency is reported as active: 0.233 µM. With `COC(=O)C(Cc1c[nH]c2ccccc12)NC(=O)C(=O)c1c[nH]c2ccccc12` (stereo unspecified) the Potency was inconclusive [inhibitor, partial curve, poor fit]. In the case of `Cc1cc(C)c(C)c(S(=O)(=O)N2CCN(C(=O)C3CCC3)CC2)c1C`, the Potency is reported as inconclusive [inhibitor, single point]. For `CCOC(=O)c1cnc(-c2ccccc2)nc1Oc1ccc(OC)cc1`, the Potency was active: 8.28 µM. With `Cc1sc2ncnc(N3CCC(C(=O)Nc4ccc(C#N)c(Cl)c4)CC3)c2c1C` the Potency was inconclusive [inhibitor, single point]. With `CC(C)(C)C(=O)N1N=C(c2cccc(NS(C)(=O)=O)c2)CC1c1cccs1` (stereo unspecified) the Potency was inconclusive [inhibitor, single point]. In the case of `COc1ccc(S(=O)(=O)NCc2ccncc2)cc1NC(=O)c1ccccc1C`, the Potency is reported as inconclusive [inhibitor, single point]. In the case of `CCc1n[nH]c(=S)n1/N=C/c1c(C)nn(-c2ccccc2)c1Cl`, the Potency is reported as inconclusive [inhibitor, partial curve, poor fit]. In the case of `Cc1ccc(OCCCn2c(=O)oc3ccccc32)cc1`, the Potency is reported as inconclusive [inhibitor, single point]. In the case of `C#CCSC1=C(C#N)C(c2cccs2)C(C(=O)OCC)=C(C)N1` (stereo unspecified), the Potency is reported as active: 10.4 µM. For `COc1ccc(-c2nc3ccccn3c2C=O)cc1`, the Potency was “inactive”. For `CCOC(=O)CC1(NC(=O)c2cc(COc3cncc(Cl)c3)on2)CCCCC1`, the Potency was inconclusive [inhibitor, single point]. In the case of `CCc1ccc(NC(=S)NC2CC3CCC(C2)N3Cc2ccco2)cc1` (stereo unspecified), the Potency is reported as inconclusive [inhibitor, single point]. For `Cc1ccc(N2C(=O)c3ccccc3NC2C(C)Cc2ccc3c(c2)OCO3)cc1` (stereo unspecified), the Potency was inconclusive [inhibitor, single point].
